The other results are listed elsewhere or left out.
Experiments:
Assay in all cases: glycan array binding signal (z-score within array); higher = stronger binding
Details in all cases: glycan notation: IUPAC condensed, linker removed
[1] = molecular target: GlcNAc(b1-2)Man(a1-3)[GlcNAc(b1-2)Man(a1-6)]Man(b1-4)GlcNAc(b1-4)GlcNAc
Method in brief: (§1)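 Glycan array binding is given as a within-array Z-score, which can be read as non-binding when negative. The arrays, 3228 of them, came from the Consortium for Functional Glycomics database and were retained only where the protein sequence was available. Z-scores were averaged across arrays of the same protein sequence at different concentrations or buffers and across linkers.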

GlcNAc(b1-3)Gal = molecular target: GlcNAc(b1-3)Gal
Method in brief: as §1

[2] = molecular target: GlcNAc(b1-3)Gal(b1-3)GalNAc
Method in brief: as §1

GlcNAc(b1-3)Gal(b1-4)Glc = molecular target: GlcNAc(b1-3)Gal(b1-4)Glc
Method in brief: as §1

[3] = molecular target: GlcNAc(b1-3)Gal(b1-4)GlcNAc
Method in brief: as §1

[4] = molecular target: GlcNAc(b1-3)Gal(b1-4)GlcNAc(b1-3)Gal(b1-4)GlcNAc
Method in brief: as §1

GlcNAc(b1-3)GalNAc = molecular target: GlcNAc(b1-3)GalNAc
Method in brief: as §1

[5] = molecular target: GlcNAc(b1-3)[GlcNAc(b1-4)][GlcNAc(b1-6)]GlcNAc
Method in brief: as §1

[6] = molecular target: GlcNAc(b1-3)[GlcNAc(b1-6)]Gal(b1-4)GlcNAc
Method in brief: as §1

[7] = molecular target: GlcNAc(b1-3)[GlcNAc(b1-6)]GlcNAc
Method in brief: as §1

[8] = molecular target: GlcNAc(b1-4)Gal(b1-4)GlcNAc
Method in brief: as §1

[9] = molecular target: GlcNAc(b1-4)GlcNAc(b1-4)GlcNAc
Method in brief: as §1

[10] = molecular target: GlcNAc(b1-4)GlcNAc(b1-4)GlcNAc(b1-4)GlcNAc(b1-4)GlcNAc
Method in brief: as §1

[11] = molecular target: GlcNAc(b1-4)GlcNAc(b1-4)GlcNAc(b1-4)GlcNAc(b1-4)GlcNAc(b1-4)GlcNAc
Method in brief: as §1

[12] = molecular target: GlcNAc(b1-4)[GlcNAc(b1-6)]GalNAc
Method in brief: as §1

[13] = molecular target: GlcNAc(b1-6)Gal(b1-4)GlcNAc
Method in brief: as §1

GlcNAc(b1-6)GalNAc = molecular target: GlcNAc(b1-6)GalNAc
Method in brief: as §1

Kdn(a2-3)Gal(b1-3)GlcNAc = molecular target: Kdn(a2-3)Gal(b1-3)GlcNAc
Method in brief: as §1

Kdn(a2-3)Gal(b1-4)GlcNAc = molecular target: Kdn(a2-3)Gal(b1-4)GlcNAc
Method in brief: as §1

[14] = molecular target: Man(a1-2)Man(a1-2)Man(a1-3)Man
Method in brief: as §1

[15] = molecular target: Man(a1-2)Man(a1-2)Man(a1-3)[Man(a1-2)Man(a1-3)[Man(a1-2)Man(a1-6)]Man(a1-6)]Man(b1-4)GlcNAc(b1-4)GlcNAc
Method in brief: as §1

[16] = molecular target: Man(a1-2)Man(a1-2)Man(a1-3)[Man(a1-2)Man(a1-6)[Man(a1-3)]Man(a1-6)]Man(b1-4)GlcNAc(b1-4)GlcNAc
Method in brief: as §1

[17] = molecular target: Man(a1-2)Man(a1-2)Man(a1-6)[Man(a1-3)]Man
Method in brief: as §1

Man(a1-2)Man(a1-3)Man = molecular target: Man(a1-2)Man(a1-3)Man
Method in brief: as §1

[18] = molecular target: Man(a1-2)Man(a1-3)[Man(a1-2)Man(a1-6)]Man
Method in brief: as §1

[19] = molecular target: Man(a1-2)Man(a1-3)[Man(a1-3)[Man(a1-6)]Man(a1-6)]Man(b1-4)GlcNAc(b1-4)GlcNAc
Method in brief: as §1

[20] = molecular target: Man(a1-2)Man(a1-3)[Man(a1-6)]Man(a1-6)[Man(a1-2)Man(a1-3)]Man(b1-4)GlcNAc(b1-4)GlcNAc
Method in brief: as §1

Man(a1-3)[Man(a1-6)]Man = molecular target: Man(a1-3)[Man(a1-6)]Man
Method in brief: as §1

[21] = molecular target: Man(a1-3)[Man(a1-6)]Man(a1-6)[Man(a1-3)]Man(b1-4)GlcNAc(b1-4)GlcNAc
Method in brief: as §1

[22] = molecular target: Man(a1-3)[Man(a1-6)]Man(b1-4)GlcNAc(b1-4)GlcNAc
Method in brief: as §1

Man(b1-4)GlcNAc = molecular target: Man(b1-4)GlcNAc
Method in brief: as §1

Neu5Ac(a2-3)Gal = molecular target: Neu5Ac(a2-3)Gal
Method in brief: as §1

[23] = molecular target: Neu5Ac(a2-3)Gal(b1-3)GalNAc
Method in brief: as §1

[24] = molecular target: Neu5Ac(a2-3)Gal(b1-3)GalNAc(b1-3)Gal(a1-4)Gal(b1-4)Glc
Method in brief: as §1

[25] = molecular target: Neu5Ac(a2-3)Gal(b1-3)GalNAc(b1-4)[Neu5Ac(a2-3)]Gal(b1-4)Glc
Method in brief: as §1

[26] = molecular target: Neu5Ac(a2-3)Gal(b1-3)GalNAc6S
Method in brief: as §1

[27] = molecular target: Neu5Ac(a2-3)Gal(b1-3)GlcNAc
Method in brief: as §1

[28] = molecular target: Neu5Ac(a2-3)Gal(b1-3)GlcNAc(b1-3)Gal(b1-3)GlcNAc
Method in brief: as §1

[29] = molecular target: Neu5Ac(a2-3)Gal(b1-3)GlcNAc(b1-3)Gal(b1-4)GlcNAc
Method in brief: as §1

[30] = molecular target: Neu5Ac(a2-3)Gal(b1-3)GlcNAc6S
Method in brief: as §1

[31] = molecular target: Neu5Ac(a2-3)Gal(b1-3)[Fuc(a1-4)]GlcNAc
Method in brief: as §1

[32] = molecular target: Neu5Ac(a2-3)Gal(b1-3)[Fuc(a1-4)]GlcNAc(b1-3)Gal(b1-4)[Fuc(a1-3)]GlcNAc
Method in brief: as §1

[33] = molecular target: Neu5Ac(a2-3)Gal(b1-3)[Neu5Ac(a2-3)Gal(b1-4)]GlcNAc
Method in brief: as §1

B1: X56-1 (Clostridium perfringens), P26831 (protein)
chain: MGSSHHHHHHSSGLVPRGSHMASDPNRIIATYISNRQDAPTGNPDNIFDNNASTELVYKNPNRIDVGTYVGVKYSNPITLNNVEFLMGANSNPNDTMQKAKIQYTVDGREWIDLEEGVEYTMPGAIKVENLDLKVRGVRLIATEARENTWLGVRDINVNKKEDSNSGVEF
glycan array binding signal (z-score) [1]: -0.442
glycan array binding signal (z-score) (GlcNAc(b1-3)Gal): -0.038
glycan array binding signal (z-score) [2]: 0.035
glycan array binding signal (z-score) (GlcNAc(b1-3)Gal(b1-4)Glc): -0.355
glycan array binding signal (z-score) [3]: -0.395
glycan array binding signal (z-score) [4]: -0.172
glycan array binding signal (z-score) (GlcNAc(b1-3)GalNAc): -0.086
glycan array binding signal (z-score) [5]: -0.04
glycan array binding signal (z-score) [6]: -0.255
glycan array binding signal (z-score) [7]: -0.276
glycan array binding signal (z-score) [8]: -0.371
glycan array binding signal (z-score) [9]: -0.303
glycan array binding signal (z-score) [10]: -0.241
glycan array binding signal (z-score) [11]: -0.079
glycan array binding signal (z-score) [12]: -0.516
glycan array binding signal (z-score) [13]: -0.098
glycan array binding signal (z-score) (GlcNAc(b1-6)GalNAc): -0.035
glycan array binding signal (z-score) (Kdn(a2-3)Gal(b1-3)GlcNAc): -0.429
glycan array binding signal (z-score) (Kdn(a2-3)Gal(b1-4)GlcNAc): -0.06
glycan array binding signal (z-score) [14]: 0.293
glycan array binding signal (z-score) [15]: -0.313
glycan array binding signal (z-score) [16]: -0.323
glycan array binding signal (z-score) [17]: -0.028
glycan array binding signal (z-score) (Man(a1-2)Man(a1-3)Man): -0.265
glycan array binding signal (z-score) [18]: -0.1
glycan array binding signal (z-score) [19]: -0.387
glycan array binding signal (z-score) [20]: -0.13
glycan array binding signal (z-score) (Man(a1-3)[Man(a1-6)]Man): -0.231
glycan array binding signal (z-score) [21]: -0.349
glycan array binding signal (z-score) [22]: -0.014
glycan array binding signal (z-score) (Man(b1-4)GlcNAc): -0.251
glycan array binding signal (z-score) (Neu5Ac(a2-3)Gal): -0.204
glycan array binding signal (z-score) [23]: -0.18
glycan array binding signal (z-score) [24]: -0.474
glycan array binding signal (z-score) [25]: -0.008
glycan array binding signal (z-score) [26]: 0.015
glycan array binding signal (z-score) [27]: -0.364
glycan array binding signal (z-score) [28]: 0.086
glycan array binding signal (z-score) [29]: -0.432
glycan array binding signal (z-score) [30]: 0.12
glycan array binding signal (z-score) [31]: -0.221
glycan array binding signal (z-score) [32]: -0.177
glycan array binding signal (z-score) [33]: -0.513

From the supplement of paper PMC8728848
